Results: PubChem BioAssay AID360 (National Center for Advancing Translational Sciences (NCATS), 2006)
Hit rate of the full screen: of about 48,000 compounds, about 550 (1.1%) were called active. About 4% were inconclusive and are not listed. Cut-off read from the data, not from the text of the source: active = potency below about 15 µM; inconclusive = mostly about 16 µM to 33 µM; inactive = weaker than that. The list shows a part of the results.

The compounds below were run against Lysosomal acid glucosylceramidase (Homo sapiens) (UniProt P04062) (assay: Glucocerebrosidase). Settings: purified enzyme, resorufin glucoside fluorescence (screen aimed at inhibitors), 20 min.
Chain of UniProt P04062 (P04062 whole entry, looked up): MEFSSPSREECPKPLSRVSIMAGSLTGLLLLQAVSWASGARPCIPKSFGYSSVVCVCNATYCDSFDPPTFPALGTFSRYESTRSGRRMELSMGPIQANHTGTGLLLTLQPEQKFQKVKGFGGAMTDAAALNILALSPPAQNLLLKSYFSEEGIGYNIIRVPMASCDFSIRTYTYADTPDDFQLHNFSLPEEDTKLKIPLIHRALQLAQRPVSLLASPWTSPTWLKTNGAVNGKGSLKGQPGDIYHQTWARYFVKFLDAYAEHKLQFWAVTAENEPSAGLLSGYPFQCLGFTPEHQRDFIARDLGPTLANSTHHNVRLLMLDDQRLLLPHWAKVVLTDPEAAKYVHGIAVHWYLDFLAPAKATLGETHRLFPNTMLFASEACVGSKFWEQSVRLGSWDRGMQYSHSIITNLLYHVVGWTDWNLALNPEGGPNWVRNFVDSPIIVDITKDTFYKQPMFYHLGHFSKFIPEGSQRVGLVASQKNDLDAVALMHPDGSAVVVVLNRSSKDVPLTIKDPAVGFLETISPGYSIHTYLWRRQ
Outline: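 Compounds titrated against 0.2 nM normal enzyme, 30 uM resorufin beta-D-glucopyranoside substrate, citrate/phosphate buffer with taurocholate and tween-20, pH 5.9. Reaction ran 20 min at room temperature; fluorescence (Ex 548/Em 600) gave AC50.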
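Note: the screen sought inhibitors.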
Potency is the fitted concentration of half-maximal effect.

Row | Compound | Potency
1 | Cc1cc(C(=O)Nc2sc3c(c2C#N)CCC(C)C3)cs1 (configuration not stated) | inactive: > 76.9 µM
2 | CCCC(C(=O)NC1CCCC1)N(CC1CCCO1)C(=O)c1snc(C(N)=O)c1N (configuration not stated) | inactive: > 76.9 µM
3 | COc1cc(-c2nc(S(=O)(=O)c3ccc(C)cc3)c(N3CCOCC3)o2)cc(OC)c1OC | inactive: > 76.9 µM
4 | CC1CCCCN1C(=O)N[C@@H](Cc1ccccc1)C(=O)O (some centres not stated) | inactive: > 76.9 µM
5 | O=C(c1cccs1)N1CCN(C2CCN(Cc3ccccc3)CC2)CC1 | inactive: > 76.9 µM
6 | COc1ccc(/C=N/n2c(=O)[nH]c3c([nH]c4ccc(C)cc43)c2=O)cc1CN1CCOCC1 | inactive: > 76.9 µM
7 | COCCNC(=O)Cn1nc(C)c2ccccc2c1=O | inactive: > 76.9 µM
8 | COc1ccccc1CC(=O)N1CCCC1 | inactive: > 76.9 µM
9 | COc1ccccc1N=C1SC(C)CN1C(=O)C1CCC1 (configuration not stated) | inactive: > 76.9 µM
10 | CC1Cc2ccccc2N1C(=O)c1cnsn1 (configuration not stated) | inactive: > 76.9 µM
11 | COc1ccc(N2CCN(C(=O)CSc3nnc(-c4ccc5[nH]c(C)c(C)c5c4)o3)CC2)cc1 | inactive: > 76.9 µM
12 | CCOC(=O)N1CCC(NC(=O)c2cc(C(=O)NCc3ccc(F)cc3)ccc2CO)CC1 | inactive: > 76.9 µM
13 | O=C(NC12CCC(O)C(SC1)/C2=N/O)c1ccccc1 (configuration not stated) | inactive: > 76.9 µM
14 | C/C(N)=C(/C#N)C(=O)CSc1nnc(Nc2cccc(C)c2C)s1 | inactive: > 76.9 µM
15 | CC(/C=C/c1ccc(Cl)o1)=C\C(=O)O | inactive: > 76.9 µM
16 | COc1ccccc1NC(=O)CNS(=O)(=O)c1ccccc1 | inactive: > 76.9 µM
17 | COCCNC(=O)c1cc(-c2cccc(OC)c2)on1 | inactive: > 76.9 µM
18 | O=C(O)Cn1nc2ccccc2n1 | inactive: > 76.9 µM
19 | COCCn1nnnc1C(c1ccc(OC)cc1)N1CCC(C)CC1 (configuration not stated) | inactive: > 76.9 µM
20 | COc1ccc(Cl)cc1S(=O)(=O)N1CCN(CC(=O)C(C)(C)C)CC1 | inactive: > 76.9 µM
21 | CC1=Nn2c(nnc2-c2ccccc2F)SC1 | inactive: > 76.9 µM
22 | c1ccc(C2=Nn3c(nnc3-c3cc(-c4ccccc4)n[nH]3)SC2)cc1 | active: 8.53 µM
23 | CC(C(=O)N1CCN(C)CC1)N1C(=O)c2ccccc2C1=O (configuration not stated) | inactive: > 76.9 µM

Row | Compound | Potency
24 | [O-][n+]1c2c(nn1-c1ccccc1Cl)-c1nonc1CC2 | inactive: > 76.9 µM
25 | O=C(C1CCCO1)N1CCN(c2c3c(nc4cc(-c5ccc(F)cc5)nn24)CCC3)CC1 (configuration not stated) | inactive: > 76.9 µM
26 | COc1ccc(OC)c(-n2c(-c3cccc(O)c3)n[nH]c2=S)c1 | inactive: > 76.9 µM
27 | Cn1c(=O)cc(SCC(=O)Nc2ccc3c(c2)OCO3)c2ccccc21 | inactive: > 76.9 µM
28 | Cc1ccccc1NC(=O)CSc1nnnn1C | inactive: > 76.9 µM
29 | CN(C)c1ccc(-c2nn3c(C4CCCCC4)nnc3s2)cc1 | inactive: > 76.9 µM
30 | C=CCSc1nnc(-c2ccncc2)n1-c1ccc(OCC)cc1 | inactive: > 76.9 µM
31 | Cn1c(SCC(=O)NCc2ccc3c(c2)OCO3)nnc1-c1cc2ccccc2cc1O | inactive: > 76.9 µM
32 | O=C(COc1ccc2c3c(c(=O)oc2c1)CCC3)NC1CCCCC1 | inactive: > 76.9 µM
33 | COc1ccc(CNC(=O)C2CC(=O)N(c3ccc(OCC(=O)N4C(C)CCCC4C)cc3)C2)cc1 (configuration not stated) | inactive: > 76.9 µM
34 | O=C(c1ccc(S(=O)(=O)N2CCCCC2)cc1)c1nnc(-c2ccc(Cl)cc2)o1 | inactive: > 76.9 µM
35 | CN(C)c1nc(SCCOC(=O)COc2ccc(Cl)cc2Cl)nc(N(C)C)n1 | inactive: > 76.9 µM
36 | COC(=O)c1c(C(=O)OC)c2oc3ccccc3n2c1Cl | inactive: > 76.9 µM
37 | CCOC(=O)C1=C(C)NC2=C(C(=O)C(C(=O)OCC)C(c3ccco3)C2)C1c1ccccn1 (configuration not stated) | inactive: > 76.9 µM
38 | Cc1ccc(Cn2nnc3c(=O)n(CC(=O)N4CCN(c5ccccc5)CC4)cnc32)cc1 | inactive: > 76.9 µM
39 | COc1ccc(NC(=O)N2CCC(NC(=O)c3ccco3)CC2)cc1 | inactive: > 76.9 µM
40 | COc1ccc(NC2CC(=O)N(C(C)C)C2=O)cc1 (configuration not stated) | inactive: > 76.9 µM
41 | Cc1ccc(-c2nn(-c3ccccc3)cc2CN(Cc2ccccc2)C(=O)CCC(=O)O)o1 | inactive: > 76.9 µM
42 | CCOC(=O)c1c(N)c(C#N)nn1-c1ccccc1C(=O)OC | inactive: > 76.9 µM
43 | CCC(C)[C@H](NC(=O)Nc1cccc(OC)c1)C(=O)OC (some centres not stated) | inactive: > 76.9 µM
44 | CCCC12CN3CC(C)(CN(C1)C31C(=O)Nc3ccc(C)cc31)C2=O (configuration not stated) | inactive: > 76.9 µM
45 | COc1ccccc1CN1CC(C(=O)N2CCN(c3ccc(F)cc3)CC2)CC1=O (configuration not stated) | inactive: > 76.9 µM
46 | COC(=O)c1c(NC(=O)CN2CCOCC2)sc2c1CCC(C)C2 (configuration not stated) | inactive: > 76.9 µM

Row | Compound | Potency
47 | CCOc1ccc(CCNC(=O)CCc2nc(-c3ccc(OC)cc3)no2)cc1OCC | inactive: > 76.9 µM
48 | O=C(CC1NC(=O)NC1=O)NC1(C(=O)NC2CCCCC2)CCCCC1 (configuration not stated) | inactive: > 76.9 µM
49 | Cc1cc(C(=O)O)sc1C | inactive: > 76.9 µM
50 | O=C(O)c1cc(N2C(=O)C3C4C=CC(C4)C3C2=O)ccc1NCc1cccnc1 (configuration not stated) | inactive: > 76.9 µM
51 | O=C(NCC1CCCO1)c1ccc(COc2ccc(F)cc2)o1 (configuration not stated) | inactive: > 76.9 µM
52 | CC1CN(C(=O)c2ccc(C(=O)c3ccccc3)cc2)CC(C)O1 (configuration not stated) | inactive: > 76.9 µM
53 | Cc1cc(OCc2nc(-c3cccnc3)no2)c(C)cc1Br | inactive: > 76.9 µM
54 | Cc1nc2ccc(Br)cn2c1NC(C)(C)C | inactive: > 76.9 µM
55 | O=C(COc1ccc(Cl)cc1)NCc1nnc(SCC(=O)NCc2ccc3c(c2)OCO3)o1 | inactive: > 76.9 µM
56 | COc1ccc(-c2nnnn2C)cc1S(=O)(=O)NCc1ccccc1 | inactive: > 76.9 µM
57 | CC(C)(C)OC(=O)N1CCOCCOCCN(C(=O)OC(C)(C)C)CCOCCOCC1 | inactive: > 76.9 µM
58 | CC1CCN(CCNC(=O)c2ccc3c(=O)n(CCc4ccccc4)c(=O)[nH]c3c2)CC1 | inactive: > 76.9 µM
59 | O=c1c2ccccc2nnn1CSc1nnc(-c2cccnc2)n1-c1ccccc1F | inactive: > 76.9 µM
60 | COc1ccc(CCNC(=O)CCN2C(=O)COc3ccccc32)cc1OC | inactive: > 76.9 µM
61 | CCOc1ccc(NC(=O)CCC(=O)n2nc(C)cc2C)cc1 | inactive: > 76.9 µM
62 | O/N=C1\CCC\C1=C/c1ccco1 | inactive: > 76.9 µM
63 | COc1ccc(C(=O)c2ccc(N(C)C)cc2)c(OC)c1 | inactive: > 76.9 µM
64 | O=S(=O)(c1ccc(-c2nnc(SCc3ccccc3)o2)cc1)N1CCCC1 | inactive: > 76.9 µM
65 | CC1(C)Cc2ccccc2-c2nnc(SCc3ccc(C#N)cc3)n21 | inactive: > 76.9 µM
66 | COc1ccc(C(=O)COC(=O)CCn2nnc(-c3cccs3)n2)cc1 | inactive: > 76.9 µM
67 | COc1ccc(C(=O)COC(=O)CN2C(=O)C3C4C=CC(C4)C3C2=O)cc1 (configuration not stated) | inactive: > 76.9 µM
68 | CCCCSc1nnc([C@@H](NC(=O)OC(C)(C)C)C(C)C)o1 | inactive: > 76.9 µM
69 | O=C(Nc1cnn(Cc2ccc(Cl)cc2Cl)c1)c1cc(-c2cccs2)on1 | inactive: > 76.9 µM

Row | Compound | Potency
70 | Cn1ncc(C#N)c1/N=C/N1CCOCC1 | inactive: > 76.9 µM
71 | O=C(Nc1ccccc1)Nc1ccccc1C(=O)NCc1ccco1 | inactive: > 76.9 µM
72 | Cc1ccc(CNC(=O)c2nnn(-c3cccc(C)c3)c2N)cc1 | inactive: > 76.9 µM
73 | Cc1cc(C)n(Cc2ccccc2Cl)n1 | inactive: > 76.9 µM
74 | Cn1c(N)c(C(=O)COC(=O)c2ccc3c(c2)OCCO3)c(=O)n(C)c1=O | inactive: > 76.9 µM
75 | Cc1n[nH]c(=O)nc1NCc1ccc(Cl)cc1 | inactive: > 76.9 µM
76 | COc1cc(OC)cc(-n2nnnc2SCC(=O)NCc2ccc3c(c2)OCO3)c1 | inactive: > 76.9 µM
77 | O=C(c1c(Cl)nc2sccn12)N1CCCc2ccccc21 | inactive: > 76.9 µM
78 | COc1ccc(NC(=O)CN2c3cccc4cccc(c34)S2(=O)=O)cc1 | inactive: > 76.9 µM
79 | Cc1nn2c3c(cnc2c1-c1ccccc1)C(=O)CC(c1ccco1)C3 (configuration not stated) | inactive: > 76.9 µM
80 | CCn1c(COc2ccccc2)nnc1SCC(=O)Nc1cc(OC)ccc1OC | inactive: > 76.9 µM
81 | Clc1c(-c2nnc3n2CCC3)sc2ccccc12 | inactive: > 76.9 µM
82 | Cc1ccccc1C(=O)c1cccn1CC(=O)NCC1CCCO1 (configuration not stated) | inactive: > 76.9 µM
83 | COc1ccc(Nc2ncccc2C(=O)Nc2ccccc2)cc1 | inactive: > 76.9 µM
84 | O=C1c2ccccc2C(=O)N1OCc1ccccc1 | inactive: > 76.9 µM
85 | N#Cc1nc(Cc2ccccc2)oc1NCc1cccnc1 | inactive: > 76.9 µM
86 | Nc1nc(NCc2ccco2)nn1-c1ccccc1 | inactive: > 76.9 µM
87 | CCC(CC)C(=O)Nc1cc(C(=O)OC)cc(C(=O)OC)c1 | inactive: > 76.9 µM
88 | CCOc1ccccc1C1C(C#N)=C(SCC(=O)OC)NC(=O)C1C(=O)OC (configuration not stated) | inactive: > 76.9 µM
89 | CCc1ccc(NS(=O)(=O)c2cccs2)cc1 | inactive: > 76.9 µM
90 | N=c1nc(-c2ccccc2)ccn1O | inactive: > 76.9 µM
91 | O=C(COc1cccc(NC(=O)c2ccco2)c1)c1ccc(F)cc1 | inactive: > 76.9 µM
92 | CCCCCOC(=O)Cn1c(N2CCCCCC2)nc2c1c(=O)[nH]c(=O)n2C | inactive: > 76.9 µM
